# Measured values taken from PubChem BioAssay AID1347073 (National Center for Advancing Translational Sciences (NCATS), 2019).
# Among all 45,000 compounds or so, about 200 (0.44%) were called active. Inconclusive results (about 7%) are left out. Calls come from the whole dose curve; as a rule, active = well fitted activation curve with a large enough effect; inconclusive = small, poorly fitted or top-dose-only effect; inactive = no such curve, though single readings can be large or run the other way. The list shows a part of the results.
# Assay: qHTS of TDP-43 Inhibitors: NCGC Sytravon Library Screen; note: nearly all actives have a fitted effect of over 55% in size; for growth rescue (activation): 0% is about no effect
# Conditions: yeast TDP-43 toxicity rescue, BacTiter-Glo growth, 24 h; series mostly up to 46.1 µM; growth rescue (activation): at the top concentration
# Source text: The goal of this project is to identify new chemical probes capable of reversing the toxicity associated with TDP-43 which is associated with frontotemporal lobar degeneration and amyotrophic lateral sclerosis. These compounds will provide a complementary approach to deciphering the tangled mechanisms of toxicity and protection that we have uncovered through genome-wide genetic screens and are beginning to uncover in a large-scale proteomics analysis with mass spectroscopy. To this end, a miniaturized assay was developed to be screened against the Molecular Libraries Small Molecule Repository (MLSMR) to discover TDP-43 inhibitors. Please note that in the set-up this yeast-based assay compounds that inhibit as TDP-43, have a read-out as activators. NIH Chemical Genomics Center [NCGC] NIH Molecular Libraries Probe Centers Network [MLPCN] Assay Submitter (PI): Susan Lindquist, Whitehead Institute/MIT MLPCN Grant: R21 NS060957
# Dispense 2.5 microL yeast galactose medium per 1536-well plate, pin compound, dispense 2.5 microL TDP-43 expressing yeast in galactose medium at OD600=0.02 (pregrown in raffinose medium to mid-log phase) per well, incubate for 24 hr at 30 deg C, and cell growth will be measured using 5 microL of Bactiter/Glo reagent to entire plate and read using Luminescence Protocol in ViewLux.
# Potency is the fitted concentration of half-maximal effect.
Structure (SMILES),growth rescue (activation),Potency
O=C(c1ccc(F)cc1)C1CCN(Cc2ccc(F)cc2)CC1,inactive: 9.42%,
O=C(O)c1ccc(CN2CCOCC2)o1,inactive: 6.92%,
COc1ccccc1-c1cnc(C(O)c2cc(Cl)cc(Cl)c2)[nH]1 (stereo unspecified),inactive: 8.84%,
CC(C)CNC(=O)Cn1nc(C(F)(F)F)c2c1CCCC2,inactive: 13.7%,
CN1CCN(CCCNCc2cn(CCC#N)c3ccccc23)CC1,inactive: -1.4%,
COc1ccc(Cc2nc3c4cnn(-c5ccccc5Br)c4ncn3n2)cc1,inactive: 11.3%,
CCc1ccc2c(c1)C(c1ccc([N+](=O)[O-])cc1)=NNC(c1ccccc1)=N2,inactive: 2.21%,
COc1ccc(C(C(=O)NC(C)(C)C)N(Cc2ccco2)C(=O)CCC(=O)Nc2ccccn2)cc1 (stereo unspecified),inactive: -1.48%,
COc1ccc(-c2ccnc3c(C(=O)O)cnn23)cc1,inactive: 19.8%,
Cc1c([N+](=O)[O-])c([N+](=O)[O-])nn1CC(=O)NCCc1ccccc1,inactive: -0.068%,
COc1cccc(S(=O)(=O)NCc2ccc(C(=O)Nc3ccc(Cl)cc3)cc2)c1,inactive: -0.821%,
O=c1[nH]c(C2CCN(S(=O)(=O)c3cccc([N+](=O)[O-])c3)CC2)nc2c1nnn2Cc1ccccc1,inactive: 8.91%,
CCOc1ccc(CNC(=O)c2cnc(SC)nc2CC)cc1,inactive: 20.4%,
O=C(Cn1nc(C(F)F)cc1C1CC1)N1CCCC1,inactive: -14%,
CN(CC(=O)NCCc1ccc(F)cc1)Cc1ccc(Br)cc1,inactive: 9.49%,
CCCCC(=O)N(C)c1c(C)nc2ccc(C(=O)NCc3ccccc3OC)cn12,inactive: 13.5%,
Cc1cc(F)ccc1-c1cc(C(=O)NCc2ccccc2)[nH]n1,inactive: 12.7%,
CSc1ccc(CN2CCC(C)(Oc3cccc(F)c3)C2)cc1 (stereo unspecified),inactive: -4.99%,
COc1ccc(C(NC(C)=O)c2cc(Cl)c3cccnc3c2O)cc1OC (stereo unspecified),inactive: 11%,
Cn1c(Cn2nnc3ccccc32)nnc1SCC(=O)Nc1nccs1,inactive: 12%,
Cc1ccnn1Cc1cc(C(=O)O)c2ccccc2n1,inactive: 9.79%,
Cc1ccccc1NS(=O)(=O)c1ccc(NC(=O)N2CCCCC2)cc1,inactive: -4.4%,

Structure (SMILES),growth rescue (activation),Potency
COc1cccc(C(=O)NCC(=O)OC(C)C(=O)NC23CC4CC(CC(C4)C2)C3)c1 (stereo unspecified),inactive: 6.73%,
O=C(CSc1nnnn1Cc1ccccc1)NC1CCCCC1,inactive: 2.16%,
CCOC(=O)c1c(CC(C)C)csc1NC=O,,active: 15.8 µM
CCOc1cc(C)c(S(=O)(=O)NC2CC(C)(C)NC(C)(C)C2)cc1C,inactive: -8.43%,
O=C(O)CC(C(=O)N(c1ccccc1)c1ccccc1)N1CCOCC1 (stereo unspecified),inactive: 17.7%,
O=C(O)Cn1c2c(c3ccccc31)CSc1ccc(Cl)cc1-2,inactive: 8.81%,
Cc1ccc(NC(=S)/N=C(\N)Nc2nc(C)c3cc(C)c(C)cc3n2)cc1C,inactive: 9.42%,
Cc1sc2ncn(-n3c(C)ccc3C)c(=O)c2c1C,inactive: 38%,
Cc1ccc(-c2cc(C(=O)Nc3ccc(S(=O)(=O)Nc4onc(C)c4C)cc3)[nH]n2)c(O)c1,inactive: -13.5%,
NC(=O)C1(N2CCCCC2)CCN(C(=O)Nc2ccc(Cl)c(Cl)c2)CC1,inactive: -7.19%,
Cc1noc(C)c1S(=O)(=O)N1CCC(C(=O)N2CCN(Cc3ccc4c(c3)OCO4)CC2)CC1,inactive: 2.18%,
CC1Oc2ccccc2N(CC(=O)N2CCCCCC2)C1=O (stereo unspecified),inactive: -2%,
Cc1cc(NC(=O)/C(C#N)=C/c2ccc(-c3cccc(C(F)(F)F)c3)o2)n(-c2ccccc2)n1,inactive: 15.9%,
Cc1cc(NC(=O)Cn2nnc(-c3ccccc3N)n2)no1,inactive: -17.5%,
COC(=O)Cc1ccc(OC2(C)CCN(Cc3csc4ccccc34)C2)cc1 (stereo unspecified),inactive: -4.07%,
CC(=O)c1cccc(-c2ccnc3c2CC(C(=O)NCc2ccco2)O3)c1 (stereo unspecified),inactive: 7.57%,
Cc1cccc(NC(=O)COC(=O)c2nn(C)c(=O)c3ccccc23)c1C,inactive: 15.8%,
O=C(NNC(=O)c1cccs1)c1ccc(Br)cc1,inactive: 14.5%,
Cc1ccc(NC(=O)C(C)N2C(=O)c3ccccc3C2=O)nc1 (stereo unspecified),inactive: 14.5%,
Cc1ccc(C(C(=O)NC2CCCC2)N(Cc2ccccc2)C(=O)c2csnn2)o1 (stereo unspecified),inactive: -15.3%,
CSCCC(NS(=O)(=O)/C=C/c1ccccc1)C(=O)O (stereo unspecified),inactive: -9.52%,
O=S(=O)(Nc1nc2ccccc2nc1-[n+]1cccc(N=C([O-])c2ccc(Cl)cc2)c1)c1ccccc1,inactive: 1.35%,

Structure (SMILES),growth rescue (activation),Potency
Cc1ccc(NC(=S)NCC(C)CSc2ccc(Cl)cc2)cc1 (stereo unspecified),inactive: 13%,
O=S(=O)(Nc1c(F)cccc1F)c1ccc2c(c1)OCCO2,inactive: 4.6%,
COc1ccc(Cl)cc1C(=O)NNC(=S)NC(=O)c1ccc(F)c(F)c1,inactive: -18.1%,
NS(=O)(=O)c1ccc(CCNC(=O)c2ccc(C(=O)c3ccccc3)cc2)cc1,inactive: -7.61%,
COc1c(C)cc(Br)cc1C(=O)Nc1ccc(C)cc1[N+](=O)[O-],inactive: -0.87%,
COc1ccc(N(C(=O)COc2cccc(C)c2)S(=O)(=O)c2ccc(C)cc2)cc1,inactive: 3.87%,
N#C/C(=C\c1cn(CCOc2ccccc2F)c2ccccc12)C(=O)NCc1cccs1,inactive: 2.4%,
CSc1nnc(NC(=O)c2ccc(C)c(S(=O)(=O)N3CCOCC3)c2)s1,inactive: 14.7%,
CC1(C)Cc2nc3oc4c(SCC(N)=O)ncnc4c3cc2CO1,inactive: 6.99%,
CCN(CC(=O)NCCN1CCOCC1)S(=O)(=O)c1ccc(F)cc1,inactive: -8.66%,
COc1cc(CN2CCNC(=O)C2CC(=O)NCCC2=CCCCC2)cc(OC)c1 (stereo unspecified),inactive: -13.7%,
Cc1noc(C)c1C(=O)Nc1ccccc1C(=O)NCCc1ccccc1,inactive: 26.9%,
COc1ccc(S(=O)(=O)N(C(=O)c2ccco2)c2cc3sc(=O)oc3c3ccccc23)cc1,inactive: -2.62%,
COc1ccc(CC(NC(C)=O)C(=O)NC2CCN(C(=O)c3cccc(Cl)c3)CC2)cc1OC (stereo unspecified),inactive: 10.7%,
Cc1c2cnn(CC(=O)O)c(=O)c2c(C)n1Cc1cccc(Cl)c1,inactive: -3.12%,
CC(=O)Nc1cc(-c2ccc(N3CCN(C)CC3)cc2)cn2c(-c3cccc(C(C)=O)c3)cnc12,inactive: -4.5%,
Cc1ccc(Cl)cc1N1CCN(C(=S)NCCc2ccccc2)CC1,inactive: 16.3%,
CCCN(CCC)CCCn1c(=O)[nH]c2ccccc21,inactive: 5.89%,
N#CC1=C(N)Nc2nc3ccccc3n2C1c1ccc(F)cc1 (stereo unspecified),inactive: -19.2%,
CCN(CC)S(=O)(=O)c1cc(C(=O)OCC(=O)Nc2c(F)cccc2F)ccc1F,inactive: 0.213%,
S=c1[nH]nc(-c2ccncc2)n1/N=C/c1ccccc1,inactive: 18%,
O=C(Nc1ccc(F)c([N+](=O)[O-])c1)C(=O)c1c(O)[nH]c2ccccc12,inactive: -24.5%,

Structure (SMILES),growth rescue (activation),Potency
O=C(NCc1cc(Cl)cc(Cl)c1)c1ccc2nc([C@H]3C[C@H](O)[C@@H](CO)O3)[nH]c2c1,inactive: -2.53%,
C=C(C)CSc1[nH]c(=O)cc(C)c1C#N,inactive: 1.69%,
COc1ccc(C(O)c2ncc(-c3ccccc3C)[nH]2)cc1 (stereo unspecified),inactive: 5.61%,
Cc1nc2ccc(C(=O)NCCCn3ccnc3)cn2c1N(C)CC1CCCCC1,inactive: -2.89%,
COc1ccc(C(=O)NC(CCSC)C(=O)N2CCCCCC2)cc1 (stereo unspecified),inactive: 3.68%,
CC(C)(C)c1ccc(C(O)c2ncc(-c3ccccc3F)[nH]2)cc1 (stereo unspecified),inactive: 4.16%,
CCN(CC)CCOC(=O)c1ccc(NC(=O)CNC(=O)c2ccccc2)cc1,inactive: -1.84%,
CCCn1nc(C(=O)NNC(=O)c2ccc(OC(F)F)cc2)c2ccccc2c1=O,inactive: 2.14%,
COc1cc(/C=N/Nc2nc3ccccc3s2)ccc1O,inactive: 24.9%,
CCc1nnc(NC(=O)[C@@H](NC(=O)c2cccc(C)c2)C(C)C)s1,inactive: 4.56%,
O=C(N/N=C/c1ccc2c(c1)OCCO2)c1ccncc1,inactive: 9.26%,
O=C(CCNS(=O)(=O)c1ccc(Br)s1)NCc1ccc2c(c1)OCO2,inactive: 14.2%,
Cc1c(Cl)cccc1NC(=O)Cc1ccc([N+](=O)[O-])cc1,inactive: 8.3%,
COc1ccccc1NS(=O)(=O)c1ccc(C)c(NC(=O)NCCCl)c1,inactive: -0.337%,
Cc1cc(C)n2c(SCCO)nnc2n1,inactive: 6.54%,
OCCC1CN(CCCc2ccccc2)CCN1Cc1ccccc1 (stereo unspecified),inactive: -2.48%,
O=C(NCC1CCCO1)C(c1cccs1)N(Cc1cccs1)C(=O)c1ccc(-c2ccccc2)[nH]1 (stereo unspecified),inactive: 17.4%,
Cc1ccc2nc3c(cc(C(=O)NCC4CCCO4)c(=N)n3CC3CCCO3)c(=O)n2c1 (stereo unspecified),inactive: 6.25%,
COc1cc(OC)cc(C(=O)OCC(=O)Nc2cccc(C(C)=O)c2)c1,inactive: 4.39%,
O=C(O)CCC(=O)NN1C(=O)c2ccccc2NC1c1ccc(F)cc1 (stereo unspecified),inactive: 27.9%,
CC(=O)NCCNC(=O)C1Cc2c(-c3ccc(Cl)cc3)ccnc2O1 (stereo unspecified),inactive: 9.24%,
Cc1ccc(Nc2nc(N)c([N+](=O)[O-])c(N3CCOCC3)n2)cc1,inactive: 13.8%,

Structure (SMILES),growth rescue (activation),Potency
CCN(CC)S(=O)(=O)c1ccc(NCC2COc3ccccc3O2)c([N+](=O)[O-])c1 (stereo unspecified),inactive: 17.2%,
CC(C)c1ccc(NCCC(=O)c2ccc(Br)cc2)cc1,inactive: 16.2%,
O=C(CN1C(=O)NC2(CCCCCC2)C1=O)Nc1ccc2c(c1)CCC2,inactive: 6.91%,
CC(=O)Nc1ccc(C(=O)COC(=O)Cc2ccsc2)c(F)c1,inactive: 8.65%,
CC(NC(=O)N1CCN(c2ccccc2F)CC1)c1ccc(F)c(F)c1 (stereo unspecified),inactive: 6.06%,
O=C(O)c1cnc(-c2ccccc2)nc1-c1ccccc1,inactive: -1.37%,
O=C(Cn1nc(Cl)nc1Cl)c1ccccc1,inactive: 7.88%,
O=C(NC1CC1)c1cc(=S)[nH]c2ccccc12,inactive: 21.7%,
CC/C(=N\NC(=O)CNC(=O)/C=C/c1ccc(OC)cc1)c1ccccc1,inactive: -0.776%,
O=C(Nc1ccc2c(c1)OCO2)N1CCN(c2ccc(F)cc2)CC1,inactive: 18.9%,
CCN(CCNCC(O)COc1ccccc1C(C)C)c1cccc(C)c1 (stereo unspecified),inactive: 4.27%,
O=C1CCC(CCC(=O)N2CCCC(C(=O)c3cccc(C(F)(F)F)c3)C2)=NN1 (stereo unspecified),inactive: 13.2%,
O=C(Cc1coc2cc(O)ccc12)NNC(=O)c1cccs1,inactive: 11.5%,
COCCNC(=O)CN(c1cc(Cl)ccc1OC)S(=O)(=O)c1ccc(C)c([N+](=O)[O-])c1,inactive: 8.16%,
Oc1cccc(/C=N/N2CCN(C3c4ccccc4-c4ccccc43)CC2)c1,inactive: 10.5%,
COc1ccc(NC(=O)CNc2cc(S(=O)(=O)N3CCOCC3)ccc2NCC2CCCO2)cc1 (stereo unspecified),inactive: 0.922%,
CC(=O)Nc1ccc(NC(=O)CSc2ccc([N+](=O)[O-])cn2)cc1,inactive: -1.76%,
Cc1ccsc1CN(C)CC(=O)Nc1ccccc1C(=O)NC1CC1,inactive: 7%,
